A lower IC50 marks a more sensitive line; fits outside the tested doses are given as limits. For AUC the same curve is integrated over the 256-fold range of doses and scaled to a fraction: 1 means no effect, lower means more sensitive. For some of these results: Any top dose called inferred comes from the curve model; the source does not state it. For some of these results: Drugs with an entry number were screened twice under separate entries, and the two screens often disagree.
How the values were obtained:
Assay in all cases: Viability of human cancer cell lines after 72 h of drug (GDSC screen)
CUDC-101 = compound: C#Cc1cccc(Nc2ncnc3cc(OC)c(OCCCCCCC(=O)NO)cc23)c1 [CUDC-101]; conditions: top dose 5.12 µM; top dose inferred
Procedure: (§1)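 Human cancer cell lines in 384-well plates, medium with 10% serum, drug for 72 h over a 256-fold dose range (nine 2-fold or five 4-fold steps up to the top dose). Adherent lines were fixed and stained with the nucleic acid dye Syto60, suspension lines read with resazurin; signal relative to control wells, capped at 0 and 100%. One two-parameter sigmoid per drug and line, fitted in a mixed model over all curves with the slope shared within a line.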

RDEA119 = compound: COc1cc(F)c(F)c(Nc2ccc(I)cc2F)c1NS(=O)(=O)C1(C[C@H](O)CO)CC1 [RDEA119]; conditions: top dose 5 µM, top dose inferred
Procedure: as §1

OSU-03012 = compound: NCC(=O)Nc1ccc(-n2nc(C(F)(F)F)cc2-c2ccc3c(ccc4ccccc43)c2)cc1 [OSU-03012]; conditions: top dose 16 µM; top dose inferred
Procedure: as §1

QS11 = compound: OC[C@H](Cc1ccccc1)Nc1nc(Oc2ccc3c(c2)CCC3)nc2c1ncn2Cc1ccc(-c2ccccc2)cc1 [QS11]; conditions: top dose 10.24 µM
Procedure: as §1

JNK-9L = compound: Fc1cc(-c2ccnc(Nc3ccc(-n4cnc(N5CCOCC5)n4)cc3)n2)cc(N2CCOCC2)c1 [JNK-9L]; conditions: top dose 5.12 µM; top dose inferred
Procedure: as §1

5-Fluorouracil = compound: O=c1[nH]cc(F)c(=O)[nH]1 [5-Fluorouracil]; conditions: top dose 32 µM; top dose inferred
Procedure: as §1

AC220 = compound: CC(C)(C)c1cc(NC(=O)Nc2ccc(-c3cn4c(n3)sc3cc(OCCN5CCOCC5)ccc34)cc2)no1 [AC220]; conditions: top dose 1.024 µM; top dose inferred
Procedure: as §1

Cell Line | AUC (CUDC-101) | IC50 (CUDC-101) [nM] | AUC (RDEA119; screen: GDSC drug entry 1526) | IC50 (RDEA119; screen: GDSC drug entry 1526) [nM] | AUC (OSU-03012) | IC50 (OSU-03012) [nM] | AUC (QS11) | IC50 (QS11) [nM] | AUC (JNK-9L) | IC50 (JNK-9L) [nM] | AUC (5-Fluorouracil) | IC50 (5-Fluorouracil) [nM] | AUC (AC220) | IC50 (AC220) [nM] | AUC (RDEA119; screen: GDSC drug entry 1014) | IC50 (RDEA119; screen: GDSC drug entry 1014) [nM]
KYSE-70 (oesophagus, adherent) | 0.747 | 1770 | 0.883 | > 5000 | 0.592 | 1840 | 0.886 | > 10200 | 0.616 | 689 | 0.912 | > 32000 | 0.984 | > 1020 |  | 
BICR22 (head and neck, adherent) | 0.58 | 549 | 0.577 | 524 | 0.843 | 13900 | 0.983 | > 10200 | 0.69 | 1190 | 0.884 | > 32000 | 0.977 | > 1020 | 0.641 | 816
WM35 (melanoma, adherent) | 0.452 | 237 | 0.194 | 38.1 | 0.789 | 7160 | 0.928 | > 10200 | 0.472 | 268 | 0.69 | 6870 | 0.983 | > 1020 | 0.475 | 267
PL18 (pancreas, adherent) | 0.647 | 815 | 0.985 | > 5000 | 0.74 | 4840 | 0.949 | > 10200 | 0.698 | 1150 | 0.924 | > 32000 | 0.988 | > 1020 |  | 
LC-2-ad (lung adenocarcinoma, adherent) | 0.425 | 198 | 0.859 | 4300 | 0.512 | 1080 | 0.857 | 8640 | 0.44 | 219 | 0.667 | 5930 | 0.972 | > 1020 | 0.902 | > 5000
SK-MEL-24 (melanoma, adherent) | 0.593 | 607 | 0.594 | 597 | 0.885 | > 16000 | 0.983 | > 10200 | 0.906 | > 5120 | 0.89 | > 32000 | 0.983 | > 1020 |  | 
C-4-I (cervix, adherent) | 0.753 | 1830 | 0.914 | > 5000 | 0.798 | 8360 | 0.964 | > 10200 | 0.537 | 408 | 0.959 | > 32000 | 0.986 | > 1020 | 0.745 | 1680
DoTc2-4510 (cervix, adherent) | 0.422 | 198 |  |  | 0.632 | 2260 | 0.925 | > 10200 | 0.422 | 198 | 0.955 | > 32000 | 0.98 | > 1020 | 0.95 | > 5000
JiyoyeP-2003 (Burkitt lymphoma, suspension) | 0.333 | 117 | 0.989 | > 5000 | 0.755 | 4850 | 0.963 | > 10200 | 0.524 | 368 | 0.603 | 3690 | 0.991 | > 1020 | 0.99 | > 5000
EM-2 (chronic myeloid leukaemia, suspension) | 0.515 | 354 | 0.517 | 350 | 0.825 | 11300 | 0.961 | > 10200 | 0.629 | 765 | 0.734 | 10300 | 0.976 | > 1020 | 0.494 | 299
SBC-1 (small cell lung carcinoma, suspension) | 0.636 | 749 | 0.987 | > 5000 | 0.965 | > 16000 | 0.984 | > 10200 | 0.938 | > 5120 | 0.728 | 8620 | 0.987 | > 1020 | 0.989 | > 5000
TE-12 (oesophagus, suspension) | 0.911 | > 5120 | 0.861 | > 5000 | 0.585 | 1800 | 0.923 | > 10200 | 0.641 | 857 | 0.877 | > 32000 | 0.983 | > 1020 | 0.695 | 1250
SW872 (soft tissue, adherent) | 0.788 | 2020 | 0.629 | 681 | 0.665 | 2730 | 0.86 | 7280 | 0.572 | 493 | 0.964 | > 32000 | 0.989 | > 1020 |  | 
DK-MG (glioma, adherent) | 0.712 | 1740 | 0.727 | 1930 | 0.877 | > 16000 | 0.975 | > 10200 | 0.923 | > 5120 | 0.941 | > 32000 | 0.772 | 605 | 0.731 | 2010
BE2-M17 (neuroblastoma, adherent) | 0.666 | 943 | 0.858 | 4310 | 0.824 | 9850 | 0.933 | > 10200 | 0.654 | 866 | 0.904 | > 32000 | 0.987 | > 1020 | 0.739 | 1550
GI-ME-N (neuroblastoma, adherent) | 0.415 | 172 | 0.677 | 1170 | 0.863 | > 16000 | 0.977 | > 10200 | 0.607 | 702 | 0.732 | 11900 | 0.939 | > 1020 | 0.702 | 1440
FTC-133 (thyroid, adherent) | 0.801 | 2790 | 0.917 | > 5000 | 0.907 | > 16000 | 0.986 | > 10200 | 0.862 | 5100 | 0.986 | > 32000 | 0.986 | > 1020 | 0.843 | 4070
